# Data reported in PubChem BioAssay AID1460 (National Center for Advancing Translational Sciences (NCATS), 2008).
# About 5,800 (2.1%) of roughly 270,000 compounds were called active. Inconclusive results, whose numbers are uncertain, are shown with a selection of clear calls. Calls come from the whole dose curve; as a rule, active = well fitted inhibition curve with a large enough effect; inconclusive = small, poorly fitted or top-dose-only effect; inactive = flat fitted curve, though single readings scatter. Potencies beside an inconclusive call are fits to weak or partial responses and may not hold up.
# Target: Microtubule-associated protein tau (Homo sapiens) (UniProt P10636)
# UniProt P10636, sequence (P10636 whole entry, looked up): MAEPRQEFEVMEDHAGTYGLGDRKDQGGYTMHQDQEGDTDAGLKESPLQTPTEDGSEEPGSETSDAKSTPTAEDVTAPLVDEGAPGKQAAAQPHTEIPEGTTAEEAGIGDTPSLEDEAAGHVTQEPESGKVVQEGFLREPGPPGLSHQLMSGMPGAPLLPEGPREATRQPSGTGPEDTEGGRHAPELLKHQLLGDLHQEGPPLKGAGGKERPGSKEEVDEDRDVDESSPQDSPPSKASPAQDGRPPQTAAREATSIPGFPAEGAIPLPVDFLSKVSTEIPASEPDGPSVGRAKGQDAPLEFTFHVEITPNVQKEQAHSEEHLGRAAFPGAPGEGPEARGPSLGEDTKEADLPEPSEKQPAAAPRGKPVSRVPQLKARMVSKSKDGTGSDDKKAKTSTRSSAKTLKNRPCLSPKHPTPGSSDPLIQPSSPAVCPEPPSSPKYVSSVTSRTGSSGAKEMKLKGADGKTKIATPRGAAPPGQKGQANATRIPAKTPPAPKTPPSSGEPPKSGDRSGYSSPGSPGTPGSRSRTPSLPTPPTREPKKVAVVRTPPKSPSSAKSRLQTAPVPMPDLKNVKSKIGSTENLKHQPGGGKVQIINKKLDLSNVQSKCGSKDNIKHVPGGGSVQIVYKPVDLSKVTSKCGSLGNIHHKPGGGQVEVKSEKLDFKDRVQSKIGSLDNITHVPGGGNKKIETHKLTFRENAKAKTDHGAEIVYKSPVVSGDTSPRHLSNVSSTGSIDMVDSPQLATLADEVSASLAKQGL
# Assay: qHTS for Inhibitors of Tau Fibril Formation, Thioflavin T Binding; note: nearly all actives have a fitted effect of over 55% in size
# Settings: recombinant tau K18 P301L (four-repeat tau fragment), heparin-induced fibrillization, ThT fluorescence; series mostly up to 57.4 µM; activity, negative = inhibition: at the top concentration
# How it was run: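 K18 P301L tau (15 uM + 0.24 uM Alexa 594-tagged), heparin 20 uM, NaOAc pH 7, 6 h 37 C; ThT 30 uM, 1 h RT, ex 450/em 510 nm.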
# % is set by controls: 0 for no effect and ±100 for the full control effect; potency is the fitted concentration of half-maximal effect; tags give direction and shape of the fitted curve.
SMILES,Potency,"activity, negative = inhibition"
O=C(NCc1ccco1)c1cnn2c(C(F)(F)F)cc(-c3ccco3)nc12,"inconclusive: 25.1 µM [inhibitor, partial curve]",
Cc1sc(N/N=C/c2ccco2)nc1-c1ccccc1,"inconclusive: 14.1 µM [inhibitor, partial curve]",
Cc1ccc(Cc2nc3ccccc3nc2SCC(=O)N2CCCCC2)cc1,,inactive: -10.7%
CCOc1ccccc1NC(=O)c1c(NCc2ccc(C)o2)sc2c1CCCCC2,"inconclusive: 25.1 µM [inhibitor, single point]",
CCOC(=O)CSc1ncnc2c1cnn2-c1ccc(Cl)cc1,"inconclusive: 1.78 µM [inhibitor, full curve, poor fit]",
Cc1nc(C)c(CCNS(=O)(=O)c2ccc(C)c(C)c2)s1,,inactive: -10.9%
COc1cc(OC)cc(C(=O)N2CCCc3ccccc32)c1,,inactive: -9.7%
Oc1ccc(/C=C\c2cc(O)cc(O)c2)cc1,active: 14.1 µM,
Nc1cccc(C2=Nc3cccc4cccc(c34)N2)c1,"inconclusive: 12.6 µM [inhibitor, partial curve]",
O=c1oc2c(F)cc(F)cc2cc1S(=O)(=O)c1ccc(F)cc1,"inconclusive: 15.8 µM [inhibitor, partial curve]",
Cc1ccc([N+](=O)[O-])cc1-c1ccc(/C=N/NC(=O)CN2CCOCC2)o1,"inconclusive: 11.2 µM [inhibitor, partial curve]",
CCOC(=O)c1csc(NC(=O)CSc2nnnn2-c2ccc(OC)cc2)n1,,inactive: -19.9%
Cc1nc(-c2ccccc2)c(-c2ccccc2)[nH]1,,inactive: -5.66%
Cc1nn(-c2cccc(Cl)c2)c2nc(-c3ccco3)cc(C(=O)O)c12,"inconclusive: 22.4 µM [inhibitor, partial curve]",
O=C1C[C@@H]2CCN3C(=O)CCC[C@@H]([C@H]23)[C@@H]1Cc1ccccc1,,inactive: -8.53% [at 81.4 µM]
COc1cc(CNc2ccc3[nH]c(=O)[nH]c3c2)ccc1OCC(=O)NC(C)(C)C,active: 14.1 µM,
COCCCNCC(=O)Nc1ccc(OC(F)(F)F)cc1,,inactive: -2.31%
Cc1cccc2c(N=O)c(O)[nH]c12,"inconclusive: 12.6 µM [inhibitor, partial curve]",
CN(C)/N=C/C=C1\CCC/C(=C/c2cccs2)C1=O,active: 0.631 µM,
O=[N+]([O-])c1ccc2oc(-c3cccc(O)c3)nc2c1,"inconclusive: 12.6 µM [inhibitor, partial curve]",
CC1OC(OC2C(CO)OC(OC3C(CO)OC(O)C(O)C3O)C(O)C2O)C(O)C(O)C1NC1C=C(CO)C(O)C(O)C1O (configuration not stated),,inactive: 11.9%
COC(=O)c1ccccc1NC(=O)CCCn1nc(C)c2sc3ccccc3c2c1=O,"inconclusive: 0.631 µM [inhibitor, full curve, poor fit]",
